Laboratory results taken from the supplement of paper PMC4604168 (melanoma cell lines).
Some of the results follow. Most values come without repeats; read them as rough.

Each compound was assayed on COLO829 (assay: cell count relative to DMSO control; melanoma cells; higher = more viable cells). Details: library dose: low library concentration; 72 h.
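Further: cell number obtained by counting DAPI-stained nuclei in high-throughput microscope images with image analysis software, screen run in 1,536-well plates.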

SMILES | cell count [%]
COc1ccc(C2=N[C@@H](c3ccc(Cl)cc3)[C@@H](c3ccc(Cl)cc3)N2C(=O)N2CCNC(=O)C2)c(OC(C)C)c1 [Nutlin-3] + C=C(c1ccc(C(=O)O)cc1)c1cc2c(cc1C)C(C)(C)CCC2(C)C [Bexarotene] (first compound 0.1 µM, partner dose 2 µM) | 112
Cc1cc(Nc2cc(N3CCN(C)CC3)nc(/C=C/c3ccccc3)n2)n[nH]1 + Cc1nc(Nc2ncc(C(=O)Nc3c(C)cccc3Cl)s2)cc(N2CCN(CCO)CC2)n1 [dasatanib] (first compound 0.04 µM, partner dose 0.004 µM) | 73.4
Cc1cn(-c2cc(NC(=O)c3ccc(C)c(Nc4nccc(-c5cccnc5)n4)c3)cc(C(F)(F)F)c2)cn1 [nilotinib] + CC(=O)O[C@@]12CO[C@@H]1C[C@H](O)[C@@]1(C)C(=O)[C@H](O)C3=C(C)[C@@H](OC(=O)[C@H](O)[C@@H](NC(=O)OC(C)(C)C)c4ccccc4)C[C@@](O)([C@@H](OC(=O)c4ccccc4)[C@H]21)C3(C)C [Docetaxel] (first compound 0.2 µM, partner dose 0.0001 µM) | 62
Cn1c(=O)n(-c2ccc(C(C)(C)C#N)cc2)c2c3cc(-c4cnc5ccccc5c4)ccc3ncc21 + CO[C@H]1C[C@@H]2CC[C@@H](C)[C@@](O)(O2)C(=O)C(=O)N2CCCC[C@H]2C(=O)O[C@H]([C@H](C)C[C@@H]2CC[C@@H](OCCO)[C@H](OC)C2)CC(=O)[C@H](C)/C=C(\C)[C@@H](O)[C@@H](OC)C(=O)[C@H](C)C[C@H](C)/C=C/C=C/C=C/1C [everolimus] (first compound 0.004 µM, partner dose 0.02 µM) | 67.7
COc1ccc(C2=N[C@@H](c3ccc(Cl)cc3)[C@@H](c3ccc(Cl)cc3)N2C(=O)N2CCNC(=O)C2)c(OC(C)C)c1 [Nutlin-3] + C[C@]1(c2nc3c(C(N)=O)cccc3[nH]2)CCCN1 [Veliparib] (first compound 0.1 µM, partner dose 1.4 µM) | 71.1
COc1ccc(C2=N[C@@H](c3ccc(Cl)cc3)[C@@H](c3ccc(Cl)cc3)N2C(=O)N2CCNC(=O)C2)c(OC(C)C)c1 [Nutlin-3] + Nc1cccc2c1CN(C1CCC(=O)NC1=O)C2=O [lenalidomide] (first compound 0.1 µM, partner dose 1 µM) | 68.6
CC(C)C[C@H](NC(=O)[C@H](Cc1ccccc1)NC(=O)c1cnccn1)B(O)O [Bortezomib] + O=C(O)[C@@H]1[O][Sb](=[O])([O][Sb]2(=[O])[O][C@H]([C@H](O)CO)[C@H](O)[C@H](C(=O)O)[O]2)[O][C@H]([C@H](O)CO)[C@@H]1O [stibogluconate] (first compound 0.001 µM, partner dose 2 µM) | 105
COc1ccc(C2=N[C@@H](c3ccc(Cl)cc3)[C@@H](c3ccc(Cl)cc3)N2C(=O)N2CCNC(=O)C2)c(OC(C)C)c1 [Nutlin-3] + Nc1ccn([C@@H]2O[C@H](CO)[C@@H](O)C2(F)F)c(=O)n1 [gemcitabine] (first compound 0.1 µM, partner dose 0.0004 µM) | 96.2
Cc1cc(Nc2cc(N3CCN(C)CC3)nc(/C=C/c3ccccc3)n2)n[nH]1 + CCCS(=O)(=O)Nc1ccc(F)c(C(=O)c2c[nH]c3ncc(Cl)cc23)c1F [PLX4720] (first compound 0.04 µM, partner dose 0.08 µM) | 107
Cn1c(=O)n(-c2ccc(C(C)(C)C#N)cc2)c2c3cc(-c4cnc5ccccc5c4)ccc3ncc21 + COc1ccc(Cl)c(Nc2nc3ccccc3nc2NS(=O)(=O)c2cccc(NC(=O)C(C)(C)N)c2)c1 [XL147] (first compound 0.004 µM, partner dose 0.8 µM) | 103
Cc1cn(-c2cc(NC(=O)c3ccc(C)c(Nc4nccc(-c5cccnc5)n4)c3)cc(C(F)(F)F)c2)cn1 [nilotinib] + NC(=O)c1ccc(N(C(N)=O)c2c(F)cccc2F)nc1-c1ccc(F)cc1F [VX702] (first compound 0.2 µM, partner dose 0.4 µM) | 115
Cc1cn(-c2cc(NC(=O)c3ccc(C)c(Nc4nccc(-c5cccnc5)n4)c3)cc(C(F)(F)F)c2)cn1 [nilotinib] + O=C(O)c1ccc2c(c1)nc(Nc1cccc(Cl)c1)c1ccncc12 [CX4945] (first compound 0.2 µM, partner dose 0.4 µM) | 94.9
